From the supplement of paper PMC8512760
This is one part of the list. Many values rest on one well or one pass, so single values are uncertain.

How the values were obtained:
Test in all cases: cell viability relative to vehicle (% of vehicle); basal-like triple-negative breast cancer lines; higher = less cytotoxic
Conditions in all cases: 10 µM; 72 h
HCC-1143 = tested on: HCC-1143
HCC-1187 = tested on: HCC-1187
MDA-468 = tested on: MDA-468
SUM-149 = tested on: SUM-149
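Also: stably firefly luciferase-GFP labeled cells in 96-well plates, viability read as luciferase photon flux after d-luciferin addition, treated wells normalized to vehicle wells, single-dose high-throughput screen.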

Compound	cell viability (HCC-1143)	cell viability (HCC-1187)	cell viability (MDA-468)	cell viability (SUM-149)
O=C(O)C=Cc1ccc(Cn2ccnc2)cc1 [Ozagrel]	86.5	89.7	85.8	106
CCN(CC)C(=S)SSC(=S)N(CC)CC [Disulfiram]	79.1	17.1	39.7	132
CCOc1nc2cccc(C(=O)OCc3oc(=O)oc3C)c2n1Cc1ccc(-c2ccccc2-c2nc(=O)o[nH]2)cc1 [Azilsartan Medoxomil]	89.9	105	103	107
CCCc1nn(C)c2c(=O)nc(-c3cc(S(=O)(=O)N4CCN(C)CC4)ccc3OCC)[nH]c12.O=C(O)CC(O)(CC(=O)O)C(=O)O [Sildenafil Citrate]	95	83.7	79.7	134
CCOc1ccc(NC(C)=O)cc1 [Phenacetin]	112	98.7	112	136
CC(=O)OC1(C(C)=O)CCC2C3CC(C)C4=CC(=O)CCC4(C)C3CCC21C (stereo not given) [Medroxyprogesterone acetate]	79.7	114	110	122
O=C1CN(/N=C/c2ccc(-c3ccc([N+](=O)[O-])cc3)o2)C([O-])=N1.[Na+] [Dantrolene, sodium salt]	83.6	95.2	114	107
CCCCC1C(=O)N(c2ccccc2)N(c2ccccc2)C1=O [Phenylbutazone]	90.8	97.1	110	113
O=C(O)c1cc(=O)[nH]c(=O)[nH]1 [Orotic acid]	75.4	88.9	117	98.6
O=C(O)CO.[NH2-].[NH2-].[Pt+2] [Nedaplatin]	56.2	32.2	26.9	33
CNC1C(OC2C(OC3C(O)C(O)C(N=C(N)N)C(O)C3N=C(N)N)OC(C)C2(O)C=O)OC(CO)C(O)C1O.CNC1C(OC2C(OC3C(O)C(O)C(N=C(N)N)C(O)C3N=C(N)N)OC(C)C2(O)C=O)OC(CO)C(O)C1O.O=S(=O)(O)O.O=S(=O)(O)O.O=S(=O)(O)O (stereo not given) [Streptomycin sulfate]	76	70.3	94.3	90.1
CCC1OC(=O)C(C)C(OC2CC(C)(OC)C(O)C(C)O2)C(C)C(OC2OC(C)CC(N(C)C)C2O)C(C)(O)CC(C)C(=NOCOCCOC)C(C)C(O)C1(C)O (stereo not given) [Roxithromycin]	128	101	97.4	117
CC(CN1CC(=O)NC(=O)C1)N1CC(=O)NC(=O)C1 (stereo not given) [Dexrazoxane]	73	87	115	111
CCC1(O)CC2CN(CCc3c([nH]c4ccccc34)C(C(=O)OC)(c3cc4c(cc3OC)N(C)C3C(O)(C(=O)OC)C(OC(C)=O)C5(CC)C=CCN6CCC43C65)C2)C1 (stereo not given) [vinblastine]	68.3	52.2	73.4	121
Cc1c(-c2ccccc2)oc2c(C(=O)OCCN3CCCCC3)cccc2c1=O.Cl [Flavoxate hydrochloride]	70	91.3	130	109
COc1ccc2c(c1OC)C(=O)OC2C1c2c(cc3c(c2OC)OCO3)CCN1C.Cl (stereo not given) [Noscapine HCl]	84.3	103	113	98.3
CN1CCC(=C2c3ccccc3CC(=O)c3sccc32)CC1.O=C(O)C=CC(=O)O [Ketotifen Fumarate]	87	111	101	103
Cn1nnc2c(C(N)=O)ncn2c1=O [Temozolomide]	86.7	83.5	96.9	172
CCCCOc1cc(C(=O)NCCN(CC)CC)c2ccccc2n1 [Dibucaine]	73.5	87.9	122	109
CC(C)n1c(C=CC(O)CC(O)CC(=O)O)c(-c2ccc(F)cc2)c2ccccc21 (stereo not given) [Fluvastatin]	78.3	55.3	37.6	87.7
C=CC(=O)Nc1cc(Nc2nccc(-c3cn(C)c4ccccc34)n2)c(OC)cc1N(C)CCN(C)C	35.5	23.9	28.8	32.1
Cc1nc(NC(=O)N2CCCC2C(N)=O)sc1-c1ccnc(C(C)(C)C(F)(F)F)c1 (stereo not given)	63.6	74	84.2	71.2
COCC1=C(C(=O)OC(C)OC(=O)OC(C)C)N2C(=O)[C@@H](NC(=O)/C(=N\OC)c3csc(N)n3)[C@H]2SC1 (stereo not given in full) [Cefpodoxime Proxetil]	94	98.4	106	129
Cn1c(=O)c2c(ncn2CC(O)CO)n(C)c1=O (stereo not given) [Dyphylline]	93.5	91.9	85.5	113
CCOc1nc2cccc(C(=O)OC(C)OC(=O)OC3CCCCC3)c2n1Cc1ccc(-c2ccccc2-c2nn[nH]n2)cc1 (stereo not given) [Candesartan Cilexetil]	104	78.9	99.8	138
